29 compounds from PubChem BioAssay AID1745853 (National Center for Advancing Translational Sciences (NCATS), 2022) can be followed below.

Molecules are shown by their SMILES. This is one part of the list. The main result of the screen is listed elsewhere. These columns were measured beside it and carry no call. Peptide text beside a SMILES is read from it. * marks the point of attachment. PhAc = O=C(Cc1ccccc1)*

What all share (assay): Primary Screen for Target Class Profiling of Small Molecule Inhibitors of Methyltransferases
In experiment [1] the target is Glycine N-methyltransferase (Homo sapiens) (UniProt Q14749). The note with it: purified enzyme, MTase-Glo SAH luminescence; measured here: GNMT inhibition; at 40 µM; stronger effect = lower value. The gist of the method: (§1)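 Each enzyme was reacted with SAM and its substrate, with compounds tested once at 40 uM; SAH formed was read by MTase-Glo luminescence.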
For experiment [2], the target named is Guanidinoacetate N-methyltransferase (Homo sapiens) (UniProt Q14353). The note with it: purified enzyme, MTase-Glo SAH luminescence; measured here: GAMT inhibition; at 40 µM; stronger effect = lower value. The essentials: as §1
Experiment [3] concerns the target Histamine N-methyltransferase (Homo sapiens) (UniProt P50135). The note with it: purified enzyme, MTase-Glo SAH luminescence; measured here: HNMT inhibition; at 40 µM; stronger effect = lower value. The essentials: as §1
Experiment [4] has as its target Nicotinamide N-methyltransferase (Homo sapiens) (UniProt P40261). Conditions: purified enzyme, MTase-Glo SAH luminescence; measured here: NNMT inhibition; at 40 µM; stronger effect = lower value. The gist of the method: as §1
Experiment [5] deals with Phenylethanolamine N-methyltransferase (Homo sapiens) (UniProt P11086). Conditions: purified enzyme, MTase-Glo SAH luminescence; measured here: PNMT inhibition; at 40 µM; stronger effect = lower value. The gist of the method:
as §1
% is set by controls: 0 for no effect and ±100 for the full control effect.

For the compound `CCC(C)NC(=O)c1ccc2c(=O)n(Cc3ccccc3)c3nn(CC(N)=O)c(=O)n3c2c1` (stereo unspecified), the activity change, negative = inhibition in experiment [1] is -0.484%; in experiment [2] it was 2%; in experiment [3], -4.12%; in experiment [4] it was -5.69%; in experiment [5], 0.526%.
Taken in the same sequence, the figures for `O=C(CN1C(=O)C(c2ccccc2)=NC12CCCCCC2)NCC1CCCO1` (stereo unspecified) were -1.32%, -2.74%, 0.095%, -1.76% and -0.509%.
Regarding `O=c1ncn(Cc2ccccc2)c2ccc(-c3ccoc3)nc12`, the activity change, negative = inhibition in experiment [1] was -26.3%; in experiment [2], -8.72%; in experiment [3], -3.71%; in experiment [4], -14.1%; in experiment [5], -6.4%.
Take `CC(C)CCn1c(=O)c2ccccc2n2c(=O)n(Cc3ccccc3Cl)nc12`: the activity change, negative = inhibition in experiment [1] was 1.83%; in experiment [2], 1.13%; in experiment [3] it was 1.88%; in experiment [4], -4.11%; in experiment [5], 2.24%.
In the case of `CC1CCN([C@@H]2[C@H](O)[C@H](CO)O[C@@H]2CNC(=O)c2cccs2)CC1`, the activity change, negative = inhibition was -2.01% in experiment [1]; 2.4% in experiment [2]; 0.329% in experiment [3]; 0.6% in experiment [4]; 13.5% in experiment [5].
Taken in the same sequence, the figures for `CCOC(=O)CNC(=O)[C@@H]1CCCN1C(=O)Cc1ccccc1` (PhAc-Pro-Gly-OEt) were -9.39%, -12.5%, -1.62%, -25.5% and -2.69%.
Taken in the same sequence, the figures for `CN1C(=O)c2cc(C(=O)NCc3ccccc3F)nn2CC1(C)C(=O)NCc1ccccc1` (stereo unspecified) were -1.43%, 4.02%, 3.74%, -9.01% and -1.9%.
Regarding `CCOC(=O)[C@@H]1CN([S+](=O)([O-])Cc2ccccc2)[C@H]2c3ccc(OC)cc3O[C@@H]12`, the activity change, negative = inhibition was -6.05% in experiment [1]; -4.62% in experiment [2]; -1.95% in experiment [3]; -10.7% in experiment [4]; -2.63% in experiment [5].
Taken in the same sequence, the figures for `COC(=O)C1=CO[C@@H](O[C@@H]2O[C@H](CO)[C@@H](O)[C@H](O)[C@H]2O)[C@@H]2[C@@H](C(=O)OC)[C@@H](O)C(O)[C@H]12` (stereo partly specified) were -2.72%, -4.38%, -0.933%, -10.9% and 0.186%.
Turning to `CCN(Cc1ccccc1)c1nc2c(S(=O)(=O)c3ccccc3)nnn2c2ccccc12`, the activity change, negative = inhibition in experiment [1] was 0.216%; in experiment [2], 0%; in experiment [3], 2.51%; in experiment [4], -2.25%; in experiment [5], 0.767%.
As to `CC(C)CNC(=O)c1ccc2c(=O)n(C(C)C)c3nn(CC(=O)c4cccc(Cl)c4)c(=O)n3c2c1`, the activity change, negative = inhibition in experiment [1] came out at 6.1%; in experiment [2] it was 1.96%; in experiment [3], 8.96%; in experiment [4] it was 1.02%; in experiment [5], 5.08%.
In the same order, the values of `CCC(C)NC(=O)Cn1nc2n(C)c(=O)c3ccc(C(=O)NC4CCCC4)cc3n2c1=O` (stereo unspecified) are 0.92%, 0%, 6.74%, -2.7% and 4.02%.
In the same order, the values of `O=C1N=C(O)CN1/N=C/c1ccc(-c2ccc([N+](=O)[O-])cc2)o1` are -11.3%, 11%, 7.37%, -3.08% and 0.539%.
In the same order, the values of `Cc1nc(C)c(-c2ccc(C3CCC(CC(=O)O)CC3)cc2)nc1C(N)=O` (stereo unspecified) are -8.54%, -17.2%, -5.85%, -22.5% and -19.7%.
Regarding `COc1cc(/C=C/C(=O)O[C@H]2[C@H](O)[C@@H](CO)O[C@@]2(CO)O[C@H]2O[C@H](COC(=O)c3ccc(O)cc3)[C@@H](O)[C@H](O)[C@H]2O)cc(OC)c1OC`, the activity change, negative = inhibition in experiment [1] is 0.846%; in experiment [2], 6.48%; in experiment [3], 2.23%; in experiment [4], -7.82%; in experiment [5], 4.45%.
Taken in the same sequence, the figures for `O=S(=O)(c1cccc(-c2nc(-c3ccccc3)no2)c1)N1CCN(c2ccc(Cl)cc2)CC1` were -3.86%, -1.91%, -4.98%, -10.3% and -10.6%.
Taken in the same sequence, the figures for `Cc1cc2c(cc3n2CC(C)(C(=O)NC2CCCCCCC2)N(CCc2ccccc2)C3=O)o1` (stereo unspecified) were 1.67%, 0%, 8.85%, 6.03% and -1.24%.
Consider `CCCCN1C(=O)c2cc(C(=O)Nc3ccc(C)c(F)c3)nn2CC1(C)C(=O)NC1CCCC1` (stereo unspecified), for which the activity change, negative = inhibition in experiment [1] was 0.794%; in experiment [2], 0%; in experiment [3], -29%; in experiment [4] it was -1.62%; in experiment [5], 0.419%.
As to `Cc1ccc(C)c(N2C(=O)c3cc4sccc4n3CC2(C)C(=O)NC2CCCCC2)c1` (stereo unspecified), the activity change, negative = inhibition in experiment [1] is -8.87%; in experiment [2], 3.37%; in experiment [3] it was -12.8%; in experiment [4], 2.57%; in experiment [5] it was 0.202%.
Taken in the same sequence, the figures for `CCc1ccc(N2C(=O)c3cc4occc4n3CC2(C)C(=O)NC2CCC(C)CC2)cc1` (stereo unspecified) were -10.3%, 0.248%, -5.42%, -9.41% and -17.4%.
For `O=C(CCc1cc(=O)[nH]o1)N[C@H](C1CCNCC1)C1CC(O)C1` (stereo partly specified), the activity change, negative = inhibition was 4.75% in experiment [2], -8.93% in experiment [4] and -1.71% in experiment [5].
For the compound `O=S(=O)(c1cnc[nH]1)N1CCC(c2nc(CCOCC3CC3)no2)C1` (stereo unspecified), the activity change, negative = inhibition in experiment [1] was -0.806%; in experiment [2], 1.94%; in experiment [3] it was 1.88%; in experiment [4], -2.84%; in experiment [5], 4.02%.
For the compound `COc1ccc(CNC(=O)Cn2ccc3cc(S(=O)(=O)N4CCCC4)ccc32)cc1OC`, the activity change, negative = inhibition was -4.95% in experiment [1]; 5.75% in experiment [2]; 1.53% in experiment [3]; -13.4% in experiment [4]; -0.895% in experiment [5].
In the same order, the values of `CC1CCC(NC(=O)C2c3cccn3CC(=O)N2CCC2=CCCCC2)CC1` (stereo unspecified) are -1.16%, 0%, 0.434%, 1.42% and -3.46%.
Taken in the same sequence, the figures for `Fc1ccc(-c2nnn3c2nc(N2CCCC2)c2ccccc23)cc1` were 2.52%, 0%, 9.19%, 10.7% and 1.13%.
For the compound `COc1cc(OC)nc(N2C[C@H]3OC(=O)N(Cc4ccccc4OC)[C@H]3C2)n1`, the activity change, negative = inhibition is -0.939% in experiment [1]; -1.8% in experiment [2]; 0.982% in experiment [3]; -4.18% in experiment [4]; 0.936% in experiment [5].
As for `CCC(=O)OCC(=O)[C@@]1(OC(=O)CC)[C@@H](C)C[C@H]2[C@@H]3CCC4=CC(=O)C=C[C@]4(C)[C@@]3(F)[C@@H](O)C[C@@]21C`, the activity change, negative = inhibition in experiment [1] is 4.19%; in experiment [2], 7.69%; in experiment [3] it was 4.28%; in experiment [4], -16.1%; in experiment [5], -2.85%.
In the same order, the values of `CC1=C2C3OC(=O)C(C)C3(O)CCC2(C)CCC1O` (stereo unspecified) are 6.92%, 5.34%, 10.2%, -7.32% and 3.4%.
Turning to `Cc1cc(-c2nc3ncccc3o2)ccc1NC(=O)COc1ccc(C(C)(C)C)cc1`, the results for the activity change, negative = inhibition in experiment [2], in experiment [4] and in experiment [5] were -8.05%, -21.2% and -1.35%, respectively.
